The supplement of paper PMC12217912
The other results are listed elsewhere or left out. The full chains were built here from the parent and the listed change. Inactive controls read about 0.05.

B1: TEV protease; numbered along this chain (parent)
chain: MGESLFKGPRDYNPISSSICHLTNESDGHTTSLYGIGFGPFIITNKHLFRRNNGTLVVQSLHGVFKVKDTTTLQQHLVDGRDMIIIRMPKDFPPFPQKLKFREPQREERICLVTTNFQTKSMSSMVSDTSCTFPSGDGIFWKHWIQTKDGQCGSPLVSTRDGFIVGIHSASNFTNTNNYFTSVPKNFMELLTNQEAQQWVSGWRLNADSVLWGGHKVFMVKPEEPFQPVKEATQL

Variants of: B1
Assay: raw area under fraction-flipped curve 0-4 h after induction (AUC4h, not background-subtracted), DNA-recorder readout of cleavage of the substrate (dimensionless); higher = more cleavage of the substrate by the protease variant
Conditions: temperature: 34 °C; time window: 0-4 h after rhamnose induction
Protocol: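 In vivo DNA recorder in E. coli TOP10(DE3) ΔrhaA at 34 °C. Each TEVp single-site mutant (parent TEVp 0) is paired with a single-site variant of the 7-mer TEVs (canonical ENLYFQ|S). The substrate sits between flexible linkers in a Bxb1-sfGFP-TEVs-SsrA fusion, so cleavage stabilises Bxb1 and speeds flipping of a recombination array, read by NGS. The value is the raw area under the fraction-flipped curve over 0-4 h after rhamnose induction (AUC4h), with ≥20 reads per time point. It is not background-subtracted; inactive controls average about 0.047.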
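Note: Bxb1 expression induced with 0.2% (w/v) L-rhamnose at OD600 near 0.5, cultures sampled hourly, flipped fraction per protease–substrate barcode pair counted by paired-end Illumina sequencing.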

Variant	area with substrate ENAYFQS	area with substrate ENDYFQS	area with substrate ENNYFQS	area with substrate ENQYFQS	area with substrate ENRYFQS	area with substrate ENSYFQS	area with substrate ENTYFQS	area with substrate ENVYFQS	area with substrate ENWYFQS	area with substrate ENCYFQS	area with substrate ENEYFQS	area with substrate ENFYFQS	area with substrate ENGYFQS	area with substrate ENHYFQS	area with substrate ENIYFQS	area with substrate ENKYFQS	area with substrate ENMYFQS	area with substrate ENPYFQS	area with substrate ENYYFQS
N175P	0.0546	0.0532	0.0568	0.0728	0.0551	0.066	0.0641	0.0668	0.0515										
T70W	0.0615	0.0642	0.037	0.0615	0.0609	0.0632	0.0603	0.0621	0.0119	0.0666	0.0652	0.0646	0.0656	0.0598	0.0887	0.0636	0.0369	0.0591	0.0603
T115W	0.055		0.0479	0.0576	0.0562	0.0595	0.07			0.0696	0.0745	0.0747		0.0624	0.102	0.0511		0.0662	
S127Y	0.0547	0.0476				0.0496	0.072			0.0506	0.06		0.0521		0.155	0.0585	0.0896	0.0586	
L22R	0.0432	0.0495	0.039	0.0433	0.0467	0.0522	0.0455	0.039	0.0345	0.0456	0.0464	0.0452	0.0517			0.0459	0.101	0.0497	0.0413
I42H	0.0393	0.0315		0.0501			0.0313				0.0444		0.0472	0.082		0.0303	0.0428		0.0341
F38A	0.0693			0.05		0.0581	0.0505	0.0349		0.0618	0.0468	0.0705		0.0711					
F163L	0.0598	0.0631		0.0511	0.051	0.0576				0.0699	0.0745	0.0539	0.0586				0.07	0.0529	
M83I	0.0623			0.0581	0.0466	0.0293				0.057	0.0822							0.0519	
P14R	0.049	0.0639	0.0622	0.0601	0.0597	0.0556	0.0727	0.0848	0.0644	0.0858		0.0642	0.0691	0.0616	0.102	0.061			
K142M	0.0572	0.0684		0.0576	0.0641	0.075		0.0712		0.0662		0.0628		0.0516	0.125	0.0705		0.062	0.0908
H47V	0.0637	0.062	0.0587	0.051	0.0687	0.0612	0.071			0.0678	0.0639	0.0478	0.0437	0.0608	0.0471		0.0704		0.0726
K66I	0.0573	0.0534			0.0651		0.063	0.079	0.0376	0.0742	0.0167					0.162			
F117G	0.0648	0.0605	0.077	0.0357			0.067	0.0675			0.0597		0.062	0.0616	0.105				0.0826
H76A	0.0527	0.0513	0.0689	0.0603		0.0397	0.0534	0.0711			0.0534		0.0638	0.0611	0.0801			0.0785	
K68L	0.0822	0.0638	0.0681	0.0581	0.0609	0.0617	0.0404	0.0742	0.0476	0.0679	0.0594	0.0539	0.0601	0.0516	0.107	0.0686	0.0883		0.0567
L156M	0.0764	0.0556	0.0641	0.0631	0.066	0.0701	0.0541	0.0731	0.057		0.0538	0.0763		0.0521	0.142		0.0803	0.0672	0.0454
D161T	0.0502	0.0543	0.0522		0.0616		0.0707			0.0749	0.0523		0.0607	0.0654		0.0641	0.0549	0.0732	0.0684
C20T	0.0677	0.0579	0.0596	0.0504	0.0537	0.0658	0.063	0.0733	0.0434	0.0517	0.0552	0.0587	0.0492	0.0524	0.0866		0.0876	0.052	0.0681
C20D	0.0489	0.0453	0.0446	0.0444	0.0407	0.0482	0.0447	0.0379	0.0038	0.0439		0.025	0.0406	0.0478	0.0229	0.0753	0.0495	0.0315	0.0393
C20G	0.0394					0.0485									0.0776	0.0491			
G28P	0.0592	0.0612	0.0573	0.0698	0.0563	0.0633	0.0562	0.0583		0.0543		0.0641	0.0601	0.066	0.0845			0.0524	0.0645
H143L	0.0622	0.0602	0.0653	0.0591	0.0538	0.0616		0.0608				0.045		0.0691		0.0667			0.0474
A196H	0.0579	0.0663	0.0602	0.0557	0.0642	0.0754	0.0711	0.0764	0.05	0.0473	0.0686	0.0655	0.0706	0.0634		0.0581	0.0843	0.0593	0.0486
W141Q	0.0526	0.0631	0.0531	0.0532	0.0536	0.0551	0.0504	0.0491		0.0686	0.0781	0.0607	0.0513			0.0572		0.0649	
Q234R	0.0387	0.0615	0.0571	0.0684	0.0675	0.0578	0.0617				0.061		0.0899	0.0658	0.0662	0.0657		0.0672	
V113A	0.064	0.049	0.0486	0.0588		0.057		0.0733		0.0662	0.0582	0.0584			0.105		0.0578		0.0475
